Experimental findings from paper PMC7795355 are described below.

No constants are given. Whether binding was seen depends on the method and setting. Binding seen in cells or lysates may run through a third protein. Some binding calls cover weakened binding; strength is not graded here. Sequences can lack the tags named with a protein.

Experiment [1] addresses T1, OsMre11 (Meiotic recombination 11 of rice), BiFC fusion (Oryza sativa (rice)) (UniProt Q7XQR9).
T1 sequence: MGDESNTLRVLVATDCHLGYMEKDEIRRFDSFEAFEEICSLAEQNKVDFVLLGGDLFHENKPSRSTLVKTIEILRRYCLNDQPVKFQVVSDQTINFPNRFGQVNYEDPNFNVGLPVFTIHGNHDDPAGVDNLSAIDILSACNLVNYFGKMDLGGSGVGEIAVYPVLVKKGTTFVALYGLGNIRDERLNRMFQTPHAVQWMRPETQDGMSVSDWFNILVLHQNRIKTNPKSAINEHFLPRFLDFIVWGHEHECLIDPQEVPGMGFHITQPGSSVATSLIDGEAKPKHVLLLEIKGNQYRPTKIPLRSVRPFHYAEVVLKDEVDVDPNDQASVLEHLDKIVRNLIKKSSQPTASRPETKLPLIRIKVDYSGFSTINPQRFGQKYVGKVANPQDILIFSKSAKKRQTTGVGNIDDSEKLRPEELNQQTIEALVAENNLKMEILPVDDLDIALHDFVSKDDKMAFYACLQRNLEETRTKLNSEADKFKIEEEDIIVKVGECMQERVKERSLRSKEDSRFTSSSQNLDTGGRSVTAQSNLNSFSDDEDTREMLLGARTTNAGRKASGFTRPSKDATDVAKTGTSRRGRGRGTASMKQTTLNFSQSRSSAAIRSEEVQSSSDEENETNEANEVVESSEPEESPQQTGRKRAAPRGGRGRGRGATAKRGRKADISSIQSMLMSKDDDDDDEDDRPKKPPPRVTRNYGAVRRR
Description: split reporter; BiFC with split YFP (YN and YC fusions) transiently co-expressed in tobacco (Nicotiana benthamiana) leaf epidermis cells; fluorescence observed about 36 h later.

Experiment [2] deals with T2, OsNbs1 (Nijmegen breakage syndrome 1 of rice), BiFC fusion (Oryza sativa (rice)) (UniProt Q7XD82).
T2 sequence: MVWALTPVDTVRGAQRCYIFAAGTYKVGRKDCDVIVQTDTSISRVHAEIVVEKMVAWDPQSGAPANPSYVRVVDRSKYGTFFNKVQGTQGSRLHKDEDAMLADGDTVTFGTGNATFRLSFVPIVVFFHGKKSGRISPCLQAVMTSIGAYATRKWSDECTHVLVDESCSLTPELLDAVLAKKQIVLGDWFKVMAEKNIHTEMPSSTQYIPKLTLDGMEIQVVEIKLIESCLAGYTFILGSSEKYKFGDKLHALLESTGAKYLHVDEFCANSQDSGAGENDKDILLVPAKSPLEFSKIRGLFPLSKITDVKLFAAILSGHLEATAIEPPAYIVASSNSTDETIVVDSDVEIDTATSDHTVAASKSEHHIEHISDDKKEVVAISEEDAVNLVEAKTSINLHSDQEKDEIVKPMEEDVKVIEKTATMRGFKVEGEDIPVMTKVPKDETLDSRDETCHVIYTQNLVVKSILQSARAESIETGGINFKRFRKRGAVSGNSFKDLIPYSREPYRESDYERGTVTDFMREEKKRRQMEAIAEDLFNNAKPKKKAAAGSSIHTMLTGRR
The experiment is described as above.

Experiment [3] addresses T3, OsNbs1-3×Myc (Oryza sativa (rice)) (UniProt Q7XD82).
T3 sequence: T2 sequence
Briefly: co-IP; two of the fusion proteins transiently co-expressed in tobacco leaf cells; immunoprecipitated with anti-Flag or anti-Myc antibody, blotted with anti-GFP, anti-Flag, anti-Myc; IgG as negative control.

The target in experiment [4] is T3, OsNbs1-3×Myc (Oryza sativa (rice)). Briefly: co-IP; OsMre11-GFP, OsRad50-3×Flag and OsNbs1-3×Myc, all three transiently co-expressed in tobacco leaf cells; immunoprecipitated with anti-Myc antibody, blotted with anti-Myc, anti-GFP and anti-Flag; IgG as negative control.

B1: OsNbs1 (Nijmegen breakage syndrome 1 of rice), BiFC fusion (protein, UniProt Q7XD82 1-560)
chain: T2 sequence
With B1, the binding result in experiment [1] is “binds”; in experiment [2], “no binding”.

B2: OsMre11 (Meiotic recombination 11 of rice), BiFC fusion (protein, UniProt Q7XQR9 1-705)
chain: T1 sequence
In the case of B2, the binding entry in experiment [1] and in experiment [2] was “binds” throughout.

B3: OsMre11-GFP (protein, UniProt Q7XQR9 1-705)
chain: T1 sequence
On to B3, for which the binding entry in experiment [3] and in experiment [4] was “binds” throughout.
